Reference: the supplement of paper PMC12645437, “Orthogonal IMiD-Degron Pairs Induce Selective Protein Degradation in Cells” (ACS Chemical Biology, 2025)
This is one part of the list.

Molecular target: no compound (DMSO)
Test: log2 fold change of degron read counts, EGFP-low vs EGFP+ sorted cells; higher = lower degron-EGFP level without compound (poor expression or instability)
Details: compound: DMSO control; 18 h
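Also: jurkat cells carrying a lentiviral library of mutant zinc finger degrons fused to EGFP plus mCherry, mCherry+ cells FACS sorted, degron abundance counted by next-generation sequencing.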

Sequence	log2 fold change of degron read counts
FHCEICGRQFTQKGNLLRHIKL	-1.64
FVCNICGAVFTQKGNLLRHIKL	-0.198
FECEICGHNFTQKGNLLRHIKL	-1.18
FGCPQCGANFTQKGNLLRHIKL	-0.704
FWCNVCGAQFTQKGNLLRHIKL	0.352
FFCEQCGAEFTQKGNLLRHIKL	-2.51
FWCNQCGRHFTQKGNLLRHIKL	1.33
FMCPICGHTFTQKGNLLRHIKL	-0.583
LNCEICGFACTQKGNLLRHIKL	0.316
LFCEICGFSCTQKGNLLRHIKL	0.459
FCCNICGATFTQKGNLLRHIKL	-0.624
FICDQCGAHFTQKGNLLRHIKL	-1.05
FFCEICGRQFTQKGNLLRHIKL	-1.23
FHCSVCGHSFTQKGNLLRHIKL	-0.0108
FFCEVCGAVFTQKGNLLRHIKL	-0.507
FVCPQCGAVFTQKGNLLRHIKL	-0.564

Sequence	log2 fold change of degron read counts
FKCEQCGAWFTQKGNLLRHIKL	-0.471
FVCNQCGREFTQKGNLLRHIKL	-1.57
FGCNQCGACFTQKGNLLRHIKL	-0.7
FNCPVCGASFTQKGNLLRHIKL	-0.516
FHCEICGAAFTQKGNLLRHIKL	-2.24
LWCPICGFTCTQKGNLLRHIKL	1.97
FTCPVCGAYFTQKGNLLRHIKL	-0.0582
LSCEICGFLCTQKGNLLRHIKL	0.756
FQCDICGADFTQKGNLLRHIKL	-1.3
FHCNVCGATFTQKGNLLRHIKL	-0.749
FCCEICGAMFTQKGNLLRHIKL	-0.665
FYCPICGRPFTQKGNLLRHIKL	-0.109
FDCEICGAAFTQKGNLLRHIKL	-1.04
FWCNQCGHRFTQKGNLLRHIKL	1.32
FKCNQCGAEFTQKGNLLRHIKL	-1.64
FNCEICGRAFTQKGNLLRHIKL	-1.64
